{"source": "the supplement of paper PMC11417369", "note": "The list shows a part of the results.", "data": [{"system": "PfHDP1 homeodomain (GST-tagged)", "test": "gcPBM binding intensity (ln(normalized median fluorescence intensity)); higher = stronger DNA binding", "outline": "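In this array assay, P. falciparum DNA-binding domains with a GST tag, expressed in E. coli, were applied for 1 h to primer-extended double-stranded 36-bp intergenic genomic probes and negative controls on an Agilent 4 × 180k array. Bound protein was visualised with Alexa488 anti-GST antibody at 488 nm. Binding intensity is the highest Masliner-normalised natural-log median intensity across replicate spots of either probe orientation.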", "values": [{"sequence": "TATATACCTATATACACACACATATATTATAGATAT [CACACA_site6266]", "gcPBM binding intensity (ln)": 6.56}, {"sequence": "TTTAGTTGTGAGAATTGTACATATTTTCCTTTTACC [XGTACX_site7291]", "gcPBM binding intensity (ln)": 6.89}, {"sequence": "CTGTCTGCAGATATGGTGCATTTGTAAGATCTTACA [GTGCAC_site9870]", "gcPBM binding intensity (ln)": 10.3}, {"sequence": "TTCATAAAATGTGTCTGTACGTAAATGTATTACACT [XGTACX_site3179]", "gcPBM binding intensity (ln)": 6.29}, {"sequence": "TTTATATTTATGATGGGTACACAAAATTTTACCCAT [XGTACX_site1504]", "gcPBM binding intensity (ln)": 6.52}, {"sequence": "AATGTATAAATCCATACACACATAAATTTTAATAAT [CACACA_site2363]", "gcPBM binding intensity (ln)": 6.42}, {"sequence": "TATTTTTATAAGTAAAAGGAGCACAGTTAAAGGATC [XGTACX_negctrl_site362]", "gcPBM binding intensity (ln)": 7.62}, {"sequence": "TTATTATTAAAAAAAAGTACAGAATTGAATAATACA [XGTACX_site651]", "gcPBM binding intensity (ln)": 6.55}, {"sequence": "TTTTAATTTATTAATTGTACATGTATTTTAAGATTA [XGTACX_site8417]", "gcPBM binding intensity (ln)": 6.27}, {"sequence": "TAAACATTTGGCTGATGTACTTGCTACCTTAAATCA [XGTACX_site5514]", "gcPBM binding intensity (ln)": 5.93}, {"sequence": "ATTTTTGTGTATTAATGTACTTTATGCATATTTGAC [XGTACX_site3353]", "gcPBM binding intensity (ln)": 7.62}, {"sequence": "AAAAATAGAATAAATACACACCCGTGTAACGGATTT [CACACA_site3372]", "gcPBM binding intensity (ln)": 5.91}, {"sequence": "AATAATATATTTAGGGGTACATAATAATATATTTTA [XGTACX_site8366]", "gcPBM binding intensity (ln)": 6.64}, {"sequence": "TTTTAAATATGAACATGTACATGTAAATTTACATGT [XGTACX_site4573]", "gcPBM binding intensity (ln)": 6.66}, {"sequence": "TTTATAAAAATGAACACACACATATAAATATAAATA [CACACA_site7607]", "gcPBM binding intensity (ln)": 6.72}, {"sequence": "TTACGATCATCAATATGTACATATATATATATATAT [XGTACX_site4301]", "gcPBM binding intensity (ln)": 9.43}, {"sequence": "ATTTTTTTTTTTATAGTGGATCCACATTTGCCATTT [CACACA_negctrl_site1106]", "gcPBM binding intensity (ln)": 6.4}, {"sequence": "AATATTTATATTTACACACACATAATACATCTATGT [CACACA_site4187]", "gcPBM binding intensity (ln)": 6.73}, {"sequence": "TATAAAAAAATATTATAATATATATATATATATATA [XGTACX_negctrl_site41]", "gcPBM binding intensity (ln)": 9.16}, {"sequence": "GATAAATTAAGACACACACACATATATTTATTTATA [CACACA_site7789]", "gcPBM binding intensity (ln)": 6.74}, {"sequence": "AAAAAAGAACGCATAGTGCATATCTAAAAGATTTTT", "gcPBM binding intensity (ln)": 7.88}, {"sequence": "TAGTATTAGATATATACACACATATATACCTATAGA [CACACA_site7083]", "gcPBM binding intensity (ln)": 6.5}, {"sequence": "TTGGTCTTTTAAAAAAGTACAAAAAAAAAAAAAAAA [XGTACX_site1665]", "gcPBM binding intensity (ln)": 6.08}, {"sequence": "TATAAATAAAGATATACACACATATAAATATTTTTC [CACACA_site7798]", "gcPBM binding intensity (ln)": 6.4}, {"sequence": "TTAACCGGTTTATGGGTGCACATTCTTCTTAAATAA [GTGCAC_site9928]", "gcPBM binding intensity (ln)": 8.3}, {"sequence": "CCTAGAAAAGTATATACACACGCGCAAAATAAAATT [CACACA_site1413]", "gcPBM binding intensity (ln)": 7.6}, {"sequence": "AAAAAAAAGTTAAGCACACACATGAATAAATAATAC [CACACA_site840]", "gcPBM binding intensity (ln)": 6.94}, {"sequence": "TATATATATATATATACACACATATATACCTATATA [CACACA_site6085]", "gcPBM binding intensity (ln)": 9.41}, {"sequence": "CATGTTCATCAGAACGCACACATAATGGTTTACTTA [CACACA_site898]", "gcPBM binding intensity (ln)": 6.81}, {"sequence": "GTGTATATGTATATATGTACATAAATTTTTTTTTTT [XGTACX_site7083]", "gcPBM binding intensity (ln)": 6.23}, {"sequence": "AGTAACTAATTAAATGCATGTCGATATATATTATAT [TGCATGCA_site1038]", "gcPBM binding intensity (ln)": 6.5}, {"sequence": "ACTTATATAAAACATTAACACACAAAGAAAAAAAAT [CACACA_site8529]", "gcPBM binding intensity (ln)": 7.1}, {"sequence": "GATACACCAAATAACTGTACGCACGTGTAATATTAA [XGTACX_site3441]", "gcPBM binding intensity (ln)": 7.32}, {"sequence": "AAGAAAAAAAAAATTACACACTGCGCACATACACAA [CACACA_site6721]", "gcPBM binding intensity (ln)": 7.88}, {"sequence": "AATAATAATACTAATCGTACGCATATTTTTCAAACC [XGTACX_site8055]", "gcPBM binding intensity (ln)": 6.46}, {"sequence": "ATTAAATACATTAACACACACACAAATATATACATA [CACACA_site2881]", "gcPBM binding intensity (ln)": 6.82}, {"sequence": "GGGAATATAAGTACACGATAATATGTGATAAGGTCT [CACACA_negctrl_site1502]", "gcPBM binding intensity (ln)": 7}, {"sequence": "TTTTATTTTTATTATACACACGCTTAATAAATGCAT [CACACA_site1751]", "gcPBM binding intensity (ln)": 7.02}, {"sequence": "TGTATAAAAGTTTATACACACATTTGATATATTTCA [CACACA_site6606]", "gcPBM binding intensity (ln)": 6.58}, {"sequence": "TATAAAAAAAACAAAAAAAAAAAAAAACAAAAAAAA [TGCATGCA_negctrl_site514]", "gcPBM binding intensity (ln)": 5.97}, {"sequence": "TTTTTTTGTTGTTGTTGTACGATATTTTCCTTATCA [XGTACX_site2375]", "gcPBM binding intensity (ln)": 6.98}, {"sequence": "GGGGGGATGAGATATTGTACTTTTTAGGAAAGTGTA [XGTACX_site2835]", "gcPBM binding intensity (ln)": 8.16}, {"sequence": "AAAGATAAAATATTATGTACATATATATATATATAT [XGTACX_site5079]", "gcPBM binding intensity (ln)": 9.28}, {"sequence": "CATTTAACATAAATTAAACACACAATATAATACATT [CACACA_site8333]", "gcPBM binding intensity (ln)": 6.6}]}]}
